Laboratory results reported in PubChem BioAssay AID485294 (National Center for Advancing Translational Sciences (NCATS), 2010).
In all, about 370,000 compounds went through this assay and about 150 (0.041%) were called active. The shares of active, inactive and inconclusive entries below differ from those in the screen. Calls follow the shape of the dose curve; as a rule, active = well fitted inhibition curve with a large enough effect; inconclusive = small, poorly fitted or top-dose-only effect; inactive = flat fitted curve, though single readings scatter. Potencies of inconclusive entries are left out as doubtful fits.

Molecular target: Beta-lactamase (Escherichia coli (strain K12)) (UniProt P00811)
Sequence of UniProt P00811 (P00811 whole entry, looked up): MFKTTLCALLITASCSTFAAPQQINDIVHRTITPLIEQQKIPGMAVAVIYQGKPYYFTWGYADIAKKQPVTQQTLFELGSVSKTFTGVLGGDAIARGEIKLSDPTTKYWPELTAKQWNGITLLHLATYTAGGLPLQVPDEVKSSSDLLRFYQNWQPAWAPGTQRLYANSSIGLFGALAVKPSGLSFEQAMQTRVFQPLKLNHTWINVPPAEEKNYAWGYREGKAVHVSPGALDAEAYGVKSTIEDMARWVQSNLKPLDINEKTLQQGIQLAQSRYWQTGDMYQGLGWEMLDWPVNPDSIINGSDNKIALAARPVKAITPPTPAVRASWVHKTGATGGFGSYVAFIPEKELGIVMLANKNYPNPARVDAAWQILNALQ
Assay: qHTS Inhibitors of AmpC Beta-Lactamase (assay with detergent); also: nearly all actives have a fitted effect of over 25% in size
Conditions: AmpC hydrolysis of nitrocefin, absorbance 480 nm, 0.01% Triton; series mostly up to 114 µM
Summary of the method: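 AmpC (5.3 nM in the dispensed reagent) in 20 mM phosphate pH 7.0 with 0.01% (detergent screen) or 0.0001% Triton X-100 was preincubated with compounds for 15 min at room temperature. Nitrocefin was then added from an 800 uM solution, and hydrolysis was followed at 480 nm.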
Potency is read from the fitted curve at half-maximal effect; tags tell the direction and shape of the fitted curve.

SMILES | Potency
O=C(CSc1oc(-c2ccccc2)nc1S(=O)(=O)c1ccc(Cl)cc1)c1ccccc1 | inconclusive [inhibitor, single point]
COc1ccc(N2CCN(c3ccc(NC(=O)/C=C\C(=O)O)cc3)CC2)cc1 | inconclusive [inhibitor, full curve]
O=C(O)c1cc[c]([Hg][Cl])cc1 | inconclusive [inhibitor, full curve, poor fit]
Cc1cccc(C)c1NCc1nnc(SCC(=O)Nc2nc(-c3ccccc3)cs2)n1-c1ccccc1 | inconclusive [inhibitor, partial curve, poor fit]
COc1ccc(S(=O)(=O)Cc2ccc(C(=O)N3CCOCC3)o2)cc1 | inconclusive [inhibitor, full curve, poor fit]
Cc1ccsc1/C=N/Nc1nc(=O)[nH]nc1C | inactive
Cc1ccc(NCc2nnc(SCC(=O)N(Cc3ccccc3)C(C)(C)C)o2)c(C)c1 | inconclusive [inhibitor, full curve]
O=C(Cc1ccccc1)NCCn1ccc2ccccc21 | inconclusive [inhibitor, full curve]
COc1ccc(/C=N/NC(=O)c2ccco2)cc1OCc1ccccc1 | inactive
COc1cccc(-c2nnc(-c3ccc(C)o3)o2)c1 | inactive
CCCCn1c(N)c(N(CCOC)C(=O)c2ccc(NC3CC3)c([N+](=O)[O-])c2)c(=O)[nH]c1=O | inconclusive [inhibitor, full curve, poor fit]
O=C1CSC(c2cccs2)N1c1ccccc1 (stereo not drawn) | inactive
Cc1ccccc1NC(=O)c1cccc(S(=O)(=O)Nc2cccc(C(=O)O)c2)c1 | inconclusive [inhibitor, partial curve, poor fit]
Cc1ccc(C(=O)NCCNC(=O)c2ccccc2)cc1 | inconclusive [inhibitor, partial curve]
Cc1ccc(C(=O)NN=C2CCCCCC2)s1 | inconclusive [inhibitor, partial curve, poor fit]
CCc1ccccc1NC(=O)Nc1nnc(N(C)Cc2ccccc2)s1 | inactive
CCc1nc(SCC(=O)N2CCC(Cc3ccccc3)CC2)c2c(=O)n(C)c(=O)n(C)c2n1 | inconclusive [inhibitor, single point]
COc1cnc(SC)nc1Nc1ccc(C#N)cc1 | inactive
O=C(NNC(=O)C1CCCC1)c1ccc(F)cc1 | inconclusive [inhibitor, full curve, poor fit]
COc1ccc2c(Sc3ccccc3)c(C(=O)NCCCN3CCCCC3)[nH]c2c1 | inactive
CCOC(=O)c1cc(C(C)=O)c(=O)[nH]c1C | inactive
COc1ccccc1NC(=O)NC(=O)N(C(C)C)S(C)(=O)=O | inconclusive [inhibitor, partial curve, poor fit]
CCOC(=O)C1CCCN(C(=O)c2ccc(Cn3c(=S)[nH]c4cc(C(=O)OC)ccc4c3=O)cc2)C1 (stereo not drawn) | inconclusive [inhibitor, single point]

SMILES | Potency
O=C(CSc1ccc(-c2ccccc2)nn1)c1ccccc1 | inconclusive [inhibitor, full curve, poor fit]
COc1ccc2c(c1)/C(=N/OC(=O)c1cccs1)CCC2 | inconclusive [inhibitor, single point]
COc1ccc(OC)c(CNC(=O)Cn2nc(C)c3nn(-c4ccc(Cl)cc4)c(C)c3c2=O)c1 | inactive
O=C(NCCCN1CCOCC1)c1cc(-c2cccs2)on1 | inconclusive [inhibitor, full curve]
CCN(CC)c1ccc(C(=O)NNC(=O)c2ccc3c(=O)n4c(nc3c2)CCC4)cc1 | inconclusive [inhibitor, full curve, poor fit]
Cc1cc(N2CCN(C)CC2)nc2ccc(NC(=O)c3cccnc3Cl)cc12 | inconclusive [inhibitor, full curve, poor fit]
O=C(NC1CCCC1)C(c1cccs1)N(C(=O)c1ccco1)c1ccc2c(c1)OCCO2 (stereo not drawn) | inconclusive [inhibitor, full curve, poor fit]
Cc1ccc(-c2nsc(SCC(=O)Nc3ccc4c(c3)OCO4)n2)cc1 | inconclusive [inhibitor, full curve, poor fit]
Cc1ccc(-c2csc3ncn(Cc4ccc(C(=O)O)cc4)c(=O)c23)cc1C | inactive
Cc1cc(OCC(=O)NCc2ccncc2)c2c3c(c(=O)oc2c1)CCCC3 | inconclusive [inhibitor, partial curve, poor fit]
O=P1(Nc2cccnc2)COc2ccccc2OC1 | inconclusive [inhibitor, partial curve, poor fit]
Cc1ccc2c(c1)N(C(=O)C1CCN(S(=O)(=O)c3c(C)noc3/C=C/c3ccccc3F)CC1)CCO2 | inactive
CCn1c(SCc2ccc(F)cc2Cl)nnc1-c1nonc1NC(C)=O | inactive
COc1ccc(N(C(=O)c2cccc(C)c2)S(=O)(=O)c2ccc(C)cc2)cc1 | inactive
CCc1c(C)[nH]c2ccc(C)cc2c1=O | inconclusive [inhibitor, full curve, poor fit]
Cc1cc(C)c(NC(=O)Cn2ccn(-c3cccc(Cl)c3)c(=O)c2=O)c(C)c1 | inactive
CCc1ccc(C(=O)NC(=S)Nc2ccc3c(c2)OCCO3)cc1 | inactive
COC(=O)CN1C(c2ccc(OC)cc2)=Nc2ccc(Cl)cc2C1c1ccccc1 (stereo not drawn) | inactive
Cc1ccccc1-n1c(C)cc(/C=N/Nc2ccc([N+](=O)[O-])cn2)c1C | inactive
COc1ccc2nc(NC(=O)CCN3C(=O)c4ccccc4C3=O)sc2c1 | inconclusive [inhibitor, full curve, poor fit]
CC(C)(C)c1cc[n+](-c2nc([O-])sc2C=O)cc1 | inconclusive [inhibitor, full curve, poor fit]
CC(=O)c1ccc(OCC(O)CN2CCN(CCO)CC2)cc1 (stereo not drawn) | inconclusive [inhibitor, full curve, poor fit]
O=C(Nc1ccc(Cl)cc1C(=O)NCc1cccnc1)c1ccco1 | inactive

SMILES | Potency
COc1cc2c(cc1NC(=O)COC(=O)/C=C/c1ccc([N+](=O)[O-])cc1)oc1ccccc12 | inconclusive [inhibitor, partial curve]
COc1ccc(N(Cc2cccs2)C(=O)c2ccc(C(C)(C)C)cc2)cc1 | inactive
O=C(NCc1ccccc1F)C1CCCN(S(=O)(=O)c2ccc(-n3cnnn3)cc2)C1 (stereo not drawn) | inconclusive [inhibitor, full curve, poor fit]
C#CCOc1ccc(/C=C2/C(=O)N(c3cccc(C(=O)O)c3)N=C2C)cc1OC | inconclusive [inhibitor, full curve, poor fit]
Cc1nn(C)c2c1c(C(F)(F)F)cc(=O)n2CC(=O)N1CCCCC1C (stereo not drawn) | inactive
O=C(CCc1nnc(-c2ccc3c(c2)OCO3)o1)N(Cc1ccncc1)CC1CCCO1 (stereo not drawn) | inactive
Cc1ccc(O)c(CNc2cccc(C)n2)c1 | inconclusive [inhibitor, full curve, poor fit]
CCN(C(=O)C1CCCN1S(=O)(=O)c1ccc2c(c1)n(C)c(=O)c(=O)n2C)c1ccccc1 (stereo not drawn) | inactive
CC(C)c1nnc(NC(=O)CC23CC4CC(CC(C4)C2)C3)s1 | inconclusive [inhibitor, full curve, poor fit]
C[C@H]1CN=C(N(C)C)N1CCC1CCCC1 | inconclusive [inhibitor, partial curve, poor fit]
CCC(C)(C(=O)NC1CCCC1)N(Cc1cccs1)C(=O)c1ccc2c(c1)OCO2 (stereo not drawn) | inconclusive [inhibitor, partial curve]
COCc1c(C(=O)OCC(=O)c2c(N)n(CC(C)C)c(=O)n(C)c2=O)oc2ccccc12 | inactive
CCC(=O)N1CCc2cc(Br)cc(S(=O)(=O)NCc3ccccc3OC)c21 | inactive
O=C(Cc1ccc(NS(=O)(=O)c2cccc(C(F)(F)F)c2)cc1)NCCN1CCOCC1 | inconclusive [inhibitor, full curve, poor fit]
CCN(CC)S(=O)(=O)c1cc(C)ccc1SC | inconclusive [inhibitor, partial curve, poor fit]
CC(C)(C)CC(=O)NCc1ccc(F)cc1 | inconclusive [inhibitor, single point]
CCOc1cc(N2CCOCC2)c(OCC)cc1NC(=O)CN1CCC(Cc2ccccc2)CC1 | inconclusive [inhibitor, full curve, poor fit]
CCCOc1ccc(NC(=O)CC2C(=O)N(c3ccc(OCC)cc3)C(=S)N2C2CC2)cc1 (stereo not drawn) | inconclusive [inhibitor, full curve, poor fit]
COC(=O)c1ccc(NC(=S)NNC(=O)CC(C)C)cc1 | inconclusive [inhibitor, partial curve, poor fit]
O=C(COC(=O)c1ccc(Cl)s1)c1ccc[nH]1 | inconclusive [inhibitor, full curve, poor fit]
Cc1ccc(NC(=O)CN2C(=O)N/C(=C/c3cccn3-c3ccc(C(=O)O)cc3)C2=O)cc1 | inconclusive [inhibitor, partial curve, poor fit]
CC1CCC(C(C)C)C(OC(=O)Cn2c(-c3ccc(Br)cc3)[n+](C)c3ccccc32)C1 (stereo not drawn) | inactive
